According to PubChem BioAssay AID686978 (National Center for Advancing Translational Sciences (NCATS), 2013):
Screen size: about 420,000 compounds; about 64,000 (15%) were called active. This list was built around the results that the source calls inconclusive (neither active nor inactive); the mix of calls is not that of the screen. The call rests on the fitted dose curve; in most records, active means well fitted inhibition curve with a large enough effect; inconclusive means small, poorly fitted or top-dose-only effect; inactive means flat fitted curve, though single readings scatter. Potencies of inconclusive entries are left out as doubtful fits.

Assay: qHTS for Inhibitors of human tyrosyl-DNA phosphodiesterase 1 (TDP1): qHTS in cells in absence of CPT; further: nearly all actives have a fitted effect of over 55% in size
Conditions: DT40 Tdp1-/- hTDP1 cells, no CPT, ATP luminescence, 48 h; activity change, negative = growth inhibition: at 46.2 µM (top of the series) unless noted
In short: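 DT40 Tdp1-/-;hTDP1 cells, no CPT (DMSO vehicle only), 400 cells/well; compounds pin-transferred; ≥48 hr, 37 °C; CellTiter-Glo 30 min RT dark, luminescence read.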
On the % scale 0 is the no-effect control and ±100 the full control effect; potency means the concentration at half of the fitted maximal effect; tags describe the fitted curve by direction and shape.

Compound	Potency	activity change, negative = growth inhibition
COc1ccc2c(c1)c(CCNNC(=O)C(C)(C)C)c(C)n2C(=O)c1ccc(Cl)cc1	active: 16.4 µM	–
Cc1cc(C)c(C)c(S(=O)(=O)NCC(=O)Nc2sc3c(c2C(N)=O)CCCC3)c1C	inconclusive [inhibitor, single point]	–
Cc1cc(C)cc(N(C(=O)c2ccccn2)C(C(=O)NC2CCCCC2)c2cccs2)c1 (stereo unspecified)	–	inactive: -20.2%
COc1cc(C(=O)NC(=S)NNC(=O)c2ccc3c(c2)OCO3)cc(OC)c1OC	inconclusive [inhibitor, single point]	–
COCCn1nnnc1C(C(C)C)N1CCC(Cc2ccccc2)CC1 (stereo unspecified)	inconclusive [inhibitor, partial curve, poor fit]	–
Cc1cc(C)c(CN2CCC(n3nccc3NC(=O)C3CCCC3)CC2)cc1C	–	inactive: -27%
O=C1C[C@H]2C=CCc3cccc(c32)CN1Cc1ccccc1	active: 20 µM	–
Cc1cccc(CN2C(=O)c3ccccc3Sc3ccc(C(=O)NC4CCCCC4)cc32)c1	inconclusive [inhibitor, single point]	–
Cc1cc(C(=O)CSc2nnnn2C)c(C)n1-c1cccc(F)c1	active: 9.2 µM	–
CC1ON=C(c2ccccn2)N(Cc2ccc3c(c2)OCO3)C1=O (stereo unspecified)	inconclusive [inhibitor, single point]	–
COc1ccc(NC(=O)N(Cc2ccc(C)cc2)Cc2cccnc2)c(OC)c1	inconclusive [inhibitor, single point]	–
COc1ccccc1OCc1ccc(C(=O)NC(C)c2ccccc2)o1 (stereo unspecified)	inconclusive [inhibitor, single point]	–
CNc1ncnc2ccc(-c3cccc(NS(C)(=O)=O)c3)cc12	active: 18.4 µM	–
COc1ccc(NC(=O)C(=O)N/N=C(\C)CC(=O)Nc2cc(C)ccn2)c(OC)c1	–	inactive: 0.237%
Cc1ccc(NS(=O)(=O)c2ccc(-c3coc(C)n3)cc2)c(Cl)c1	inconclusive [inhibitor, partial curve]	–
Cc1cc(C)c(S(=O)(=O)c2ccc(Cl)cc2C)c(Cl)n1	–	inactive: -27.3%
C=CCn1c(-c2csc(-c3ccccc3)n2)n[nH]c1=S	inconclusive [inhibitor, single point]	–
COC(=O)c1cn(-c2cccc(C)n2)cn1	–	inactive: 4.85%
COc1cccc(CN2CCC(C(=O)N3CCN(c4ccccc4F)CC3)CC2)c1	inconclusive [inhibitor, single point]	–
COc1cccc(N2CCN(Cc3nc(N)nc(Nc4ccccc4OC)n3)CC2)c1	–	inconclusive: -30.1% [inhibitor]
CCOc1cc(CNCCc2ccc(S(N)(=O)=O)cc2)ccc1OCC(=O)NC(C)(C)C	inconclusive [inhibitor, single point]	–
CCN(CCS(=O)(=O)c1ccc(Cl)cc1)Cc1nc2ccccc2c(=O)[nH]1	–	inactive: 1.95%
CCOc1ccc(CCNC(=O)CN2C(=O)COc3ccc(S(=O)(=O)N4CCCC4)cc32)cc1	inconclusive [inhibitor, single point]	–

Compound	Potency	activity change, negative = growth inhibition
CN(c1ccccc1)S(=O)(=O)c1cccc(NC(=O)c2cccc(C#N)c2)c1	active: 14.6 µM	–
COc1ccc(N2CCN(S(=O)(=O)CCNC(=O)c3cccs3)CC2)cc1	–	inactive: -3.35%
CCc1ccc(/C=C2\Oc3ccc(C(=O)OC)cc3C2=O)cc1	inconclusive [inhibitor, single point]	–
CC1(C)CC2(CC(c3ccccc3)Oc3cc(O)ccc32)NC(=S)N1 (stereo unspecified)	active: 20.6 µM	–
O=C1NC(CCc2ccccc2)C(=O)N1Cc1ccccc1Cl (stereo unspecified)	inconclusive [inhibitor, single point]	–
CC(C)Cc1nnc(NC(=O)C2CCCN(C(=O)c3ccc(Cl)cc3)C2)s1 (stereo unspecified)	inconclusive [inhibitor, single point]	–
CCN(CC(=O)Nc1ccc(OC)cc1)C(=O)c1ccc([N+](=O)[O-])cc1	inconclusive [inhibitor, single point]	–
O=C(c1ccc(Cl)cc1Cl)c1ncc(C(F)(F)F)cc1Cl	–	inactive: -0.723%
Cc1ccc(C(C)C)c(OCC(O)CN2CCN(c3ccccc3F)CC2)c1 (stereo unspecified)	inconclusive [inhibitor, single point]	–
COc1ccc(C(=O)Nc2cc3c(cc2N2CCCCC2)n(C)c(=O)n3C)cc1OC	active: 20.6 µM	–
Cc1ccc(NC(=O)CCC(=O)N2Cc3ccccc3Oc3ncccc32)c(C)c1	inconclusive [inhibitor, single point]	–
O=C(Cc1ccccc1)NNC(=S)NC(=O)c1cccs1	inconclusive [inhibitor, single point]	–
c1cnc2c(-c3ccc4nccn4c3)cccc2c1	–	inactive: -13%
Cc1ccc2[nH]c(=O)c(CN(Cc3ccc4c(c3)OCO4)Cc3nnnn3C3CCCC3)cc2c1	inconclusive [inhibitor, single point]	–
CCC(=O)Oc1ccc(NC(=O)c2ccco2)cc1	inconclusive [inhibitor, single point]	–
Cc1cccc(C)c1OCC(=O)N(Cc1ccc(N(C)C)cc1)C1CCS(=O)(=O)C1 (stereo unspecified)	–	inactive: -25.2%
COc1ccc(Cl)cc1S(=O)(=O)NCc1ccc2c(c1)CCN2C(=O)c1cccc(C)c1	active: 4.61 µM	–
CCOc1ccc(NC(=O)C2CCN(S(=O)(=O)c3cccs3)CC2)cc1	inconclusive [inhibitor, single point]	–
Cc1ccc(-c2nc(CS(=O)(=O)CC(=O)NC3CCC(C)CC3)c(C)o2)cc1 (stereo unspecified)	inconclusive [inhibitor, partial curve]	–
COc1ccc(/C=C2/Sc3ccc(C(=O)N4CCc5ccccc5C4)cc3NC2=O)cc1	–	inactive: -24%
O=C(O)c1ccc(S(=O)(=O)N(Cc2ccccc2)Cc2ccccc2)cc1	–	inactive: 24.2%
CCN1CCN(c2ccc(S(=O)(=O)N3CCOCC3)cc2NC(=O)/C=C/c2ccc(OC)cc2OC)CC1	inconclusive [inhibitor, single point]	–
Cc1ccc2c(c1)C(c1ccccc1)C(=O)O2 (stereo unspecified)	–	inactive: 1.42%
